Experiments:
[1] = Stability in rat liver microsomes; assay type: in vitro ADME
[2] = tested on: Zucker (fa/fa) obese male rats; assay: Glucose tolerance test in diabetic fatty Zucker rats; assay type: in vivo, rat; details: 9, 2 but not 0.1 mg/kg, ip; glucose load 2 g/kg
MC4 (h) = biological target: T1, MC4 (h) (Homo sapiens, UniProt P32245); assay: biochemical; parameters: radioligand displacement binding panel (Eurofins Cerep), % inhibition of control specific binding; details: agonist radioligand; read-out: % Inhibition of Control Specific Binding
T1 construct: gene MC4R
Source text: (§1) 3. Binding to off-target receptors
(§2) Eurofins Cerep (France). Significant binding affinity was defined as a displacement of target
(§3) selective radioligand greater than 50% using a concentration of 10 µM of 9.

CCK1 (CCKA) (h) = biological target: T2, CCK1 (CCKA) (h) (Homo sapiens, UniProt P32238); assay: biochemical; parameters: radioligand displacement binding panel (Eurofins Cerep), % inhibition of control specific binding; details: agonist radioligand; read-out: % Inhibition of Control Specific Binding
T2 construct: gene CCKAR
T2 sequence (P32238 1-428): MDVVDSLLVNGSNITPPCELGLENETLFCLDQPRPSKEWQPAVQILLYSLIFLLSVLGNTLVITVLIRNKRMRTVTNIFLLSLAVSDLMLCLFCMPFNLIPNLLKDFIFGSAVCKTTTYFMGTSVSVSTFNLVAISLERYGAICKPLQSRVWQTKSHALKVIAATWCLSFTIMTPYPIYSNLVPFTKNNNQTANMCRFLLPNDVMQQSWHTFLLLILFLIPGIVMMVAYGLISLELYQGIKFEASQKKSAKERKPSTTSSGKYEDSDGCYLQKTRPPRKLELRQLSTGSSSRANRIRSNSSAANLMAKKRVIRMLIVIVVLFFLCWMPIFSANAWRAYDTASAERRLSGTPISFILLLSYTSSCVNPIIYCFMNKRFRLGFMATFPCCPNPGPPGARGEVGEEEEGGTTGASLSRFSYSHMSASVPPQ
Source text: as §1, §2, §3

ETA (h) = biological target: T3, ETA (h) (Homo sapiens, UniProt P25101); assay: biochemical; parameters: radioligand displacement binding panel (Eurofins Cerep), % inhibition of control specific binding; details: agonist radioligand; read-out: % Inhibition of Control Specific Binding
T3 construct: gene EDNRA
T3 sequence (P25101 1-427): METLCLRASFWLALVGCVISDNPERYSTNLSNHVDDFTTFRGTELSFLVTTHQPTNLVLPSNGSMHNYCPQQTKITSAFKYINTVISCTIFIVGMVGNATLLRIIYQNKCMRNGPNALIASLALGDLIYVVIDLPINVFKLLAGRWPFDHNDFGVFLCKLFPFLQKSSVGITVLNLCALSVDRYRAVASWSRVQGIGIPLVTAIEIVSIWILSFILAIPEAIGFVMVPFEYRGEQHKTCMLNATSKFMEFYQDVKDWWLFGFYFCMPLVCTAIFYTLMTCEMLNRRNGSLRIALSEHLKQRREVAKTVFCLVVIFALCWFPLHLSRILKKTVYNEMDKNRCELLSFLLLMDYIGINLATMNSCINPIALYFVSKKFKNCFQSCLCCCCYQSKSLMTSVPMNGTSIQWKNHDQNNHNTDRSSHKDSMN
Source text: as §1, §2, §3

CB1 (h) = biological target: T4, CB1 (h) (Homo sapiens, UniProt P21554); assay: biochemical; parameters: radioligand displacement binding panel (Eurofins Cerep), % inhibition of control specific binding; details: agonist radioligand; read-out: % Inhibition of Control Specific Binding
T4 construct: gene CNR1
Source text: as §1, §2, §3

AT1 (h) = biological target: T5, AT1 (h) (Homo sapiens, UniProt P30556); assay: biochemical; parameters: radioligand displacement binding panel (Eurofins Cerep), % inhibition of control specific binding; details: antagonist radioligand; read-out: % Inhibition of Control Specific Binding
T5 construct: gene AGTR1
T5 sequence (P30556 1-359): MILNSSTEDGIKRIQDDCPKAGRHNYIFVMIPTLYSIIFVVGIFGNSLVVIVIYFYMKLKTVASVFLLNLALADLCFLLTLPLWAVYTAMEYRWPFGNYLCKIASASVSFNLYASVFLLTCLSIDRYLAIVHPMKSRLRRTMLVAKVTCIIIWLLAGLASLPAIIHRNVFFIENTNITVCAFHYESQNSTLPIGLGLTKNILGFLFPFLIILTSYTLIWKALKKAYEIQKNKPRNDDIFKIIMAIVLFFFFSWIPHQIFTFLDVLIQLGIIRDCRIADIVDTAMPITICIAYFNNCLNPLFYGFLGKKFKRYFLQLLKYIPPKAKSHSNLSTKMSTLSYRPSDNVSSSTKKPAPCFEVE
Source text: as §1, §2, §3

M3 (h) = biological target: T6, M3 (h) (Homo sapiens, UniProt P20309); assay: biochemical; parameters: radioligand displacement binding panel (Eurofins Cerep), % inhibition of control specific binding; details: antagonist radioligand; read-out: % Inhibition of Control Specific Binding
T6 construct: gene CHRM3
Source text: as §1, §2, §3

β2 (h) = biological target: T7, β2 (h) (Homo sapiens, UniProt P07550); assay: biochemical; parameters: radioligand displacement binding panel (Eurofins Cerep), % inhibition of control specific binding; details: agonist radioligand; read-out: % Inhibition of Control Specific Binding
T7 construct: gene ADRB2
Source text: as §1, §2, §3

CXCR2 (IL-8B) (h) = biological target: T8, CXCR2 (IL-8B) (h) (Homo sapiens, UniProt P25025); assay: biochemical; parameters: radioligand displacement binding panel (Eurofins Cerep), % inhibition of control specific binding; details: agonist radioligand; read-out: % Inhibition of Control Specific Binding
T8 sequence (P25025 1-360): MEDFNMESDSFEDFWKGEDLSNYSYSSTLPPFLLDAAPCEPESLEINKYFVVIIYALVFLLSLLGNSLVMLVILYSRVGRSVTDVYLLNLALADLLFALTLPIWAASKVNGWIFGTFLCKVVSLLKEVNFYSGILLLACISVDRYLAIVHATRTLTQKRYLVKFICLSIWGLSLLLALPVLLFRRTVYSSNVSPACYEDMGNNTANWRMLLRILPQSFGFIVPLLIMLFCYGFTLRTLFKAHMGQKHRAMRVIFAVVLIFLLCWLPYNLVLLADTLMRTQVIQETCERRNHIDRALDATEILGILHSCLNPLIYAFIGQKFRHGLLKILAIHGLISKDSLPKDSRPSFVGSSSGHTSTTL
Source text: as §1, §2, §3

M1 (h) = biological target: T9, M1 (h) (Homo sapiens, UniProt P11229); assay: biochemical; parameters: radioligand displacement binding panel (Eurofins Cerep), % inhibition of control specific binding; details: antagonist radioligand; read-out: % Inhibition of Control Specific Binding
T9 construct: gene CHRM1
Source text: as §1, §2, §3

M2 (h) = biological target: T10, M2 (h) (Homo sapiens, UniProt P08172); assay: biochemical; parameters: radioligand displacement binding panel (Eurofins Cerep), % inhibition of control specific binding; details: antagonist radioligand; read-out: % Inhibition of Control Specific Binding
T10 construct: gene CHRM2
T10 sequence (P08172 1-466): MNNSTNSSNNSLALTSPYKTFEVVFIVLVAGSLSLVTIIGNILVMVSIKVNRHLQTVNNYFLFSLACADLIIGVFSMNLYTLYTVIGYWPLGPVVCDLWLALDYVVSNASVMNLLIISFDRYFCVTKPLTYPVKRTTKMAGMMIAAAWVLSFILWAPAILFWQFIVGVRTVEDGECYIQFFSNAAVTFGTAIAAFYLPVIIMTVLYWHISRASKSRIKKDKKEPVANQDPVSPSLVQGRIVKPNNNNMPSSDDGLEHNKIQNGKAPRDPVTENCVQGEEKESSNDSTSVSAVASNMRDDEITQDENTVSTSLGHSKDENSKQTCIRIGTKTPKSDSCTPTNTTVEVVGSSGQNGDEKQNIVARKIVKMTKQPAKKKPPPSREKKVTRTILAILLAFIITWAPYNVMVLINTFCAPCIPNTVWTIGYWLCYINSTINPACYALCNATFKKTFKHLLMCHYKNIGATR
Source text: as §1, §2, §3

D2S (h) = biological target: T11, D2S (h) (Homo sapiens, UniProt P14416); assay: biochemical; parameters: radioligand displacement binding panel (Eurofins Cerep), % inhibition of control specific binding; details: antagonist radioligand; read-out: % Inhibition of Control Specific Binding
T11 construct: gene DRD2; short isoform D2S
Source text: as §1, §2, §3

D1 (h) = biological target: T12, D1 (h) (Homo sapiens, UniProt P21728); assay: biochemical; parameters: radioligand displacement binding panel (Eurofins Cerep), % inhibition of control specific binding; details: antagonist radioligand; read-out: % Inhibition of Control Specific Binding
T12 construct: gene DRD1
Source text: as §1, §2, §3

CYP1A2 = biological target: T13, CYP1A2 (Homo sapiens, UniProt P05177); assay: P450 cytochrome inhibition, CYP1A2; assay type: in vitro ADME
T13 sequence (P05177 1-516): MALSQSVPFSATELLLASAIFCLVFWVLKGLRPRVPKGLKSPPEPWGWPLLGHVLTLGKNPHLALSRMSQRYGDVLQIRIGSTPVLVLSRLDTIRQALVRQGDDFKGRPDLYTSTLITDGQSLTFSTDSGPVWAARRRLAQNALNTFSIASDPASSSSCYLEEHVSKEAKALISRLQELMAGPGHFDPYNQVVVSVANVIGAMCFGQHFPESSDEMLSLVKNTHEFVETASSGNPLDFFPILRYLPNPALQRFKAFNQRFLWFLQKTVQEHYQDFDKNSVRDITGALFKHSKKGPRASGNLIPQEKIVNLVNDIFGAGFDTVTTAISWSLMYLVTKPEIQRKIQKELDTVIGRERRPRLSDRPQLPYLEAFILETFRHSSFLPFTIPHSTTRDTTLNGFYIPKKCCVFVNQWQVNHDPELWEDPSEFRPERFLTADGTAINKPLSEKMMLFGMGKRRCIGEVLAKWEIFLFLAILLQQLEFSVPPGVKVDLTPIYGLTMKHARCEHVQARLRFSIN
Method: (§4) Inhibition of P450 cytochrome isoforms. […] Effect on hERG channel. […] Patch clamp experiments were carried out using […]® robot. […] After S27

CYP2D6 = CYP2D6 (Homo sapiens, UniProt P10635); assay: P450 cytochrome inhibition, CYP2D6; assay type: in vitro ADME
Method: as §4

CYP3A = CYP3A (Homo sapiens, UniProt P08684); assay: P450 cytochrome inhibition, CYP3A; assay type: in vitro ADME
Method: as §4

[3] = Stability in dog liver microsomes; assay type: in vitro ADME
CYP2C19 = CYP2C19 (Homo sapiens, UniProt P33261); assay: P450 cytochrome inhibition, CYP2C19; assay type: in vitro ADME
Method: as §4

[4] = Stability in human liver microsomes; assay type: in vitro ADME
[5] = PAMPA-BBB membrane permeability; assay type: in vitro ADME, porcine
INS-1 β-cells = assay: Insulin secretion by rat INS-1 / INS-1E insulinoma cells; assay type: cell-based
Method: The incubation was done using two types of culture media, defined as low glucose (0.5–3 mM) and high glucose (15 mM). […] Incubation with compounds lasted 30 min, and then the media was collected, centrifuged at 4 °C for 2 min until assayed for insulin using commercial ELISA kit.

T11 sequence (P14416 whole entry, canonical isoform): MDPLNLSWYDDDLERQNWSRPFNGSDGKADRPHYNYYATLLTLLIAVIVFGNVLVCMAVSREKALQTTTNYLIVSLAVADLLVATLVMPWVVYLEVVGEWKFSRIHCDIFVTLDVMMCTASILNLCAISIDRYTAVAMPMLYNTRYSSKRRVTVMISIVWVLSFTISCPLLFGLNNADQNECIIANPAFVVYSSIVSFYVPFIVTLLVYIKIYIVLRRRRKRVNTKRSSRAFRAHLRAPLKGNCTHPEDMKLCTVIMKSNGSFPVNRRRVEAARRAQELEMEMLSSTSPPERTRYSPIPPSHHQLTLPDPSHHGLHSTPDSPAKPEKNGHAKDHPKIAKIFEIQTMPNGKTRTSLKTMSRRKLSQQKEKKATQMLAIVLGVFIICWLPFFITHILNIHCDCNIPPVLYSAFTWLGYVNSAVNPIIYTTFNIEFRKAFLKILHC
T1 sequence (P32245 whole entry): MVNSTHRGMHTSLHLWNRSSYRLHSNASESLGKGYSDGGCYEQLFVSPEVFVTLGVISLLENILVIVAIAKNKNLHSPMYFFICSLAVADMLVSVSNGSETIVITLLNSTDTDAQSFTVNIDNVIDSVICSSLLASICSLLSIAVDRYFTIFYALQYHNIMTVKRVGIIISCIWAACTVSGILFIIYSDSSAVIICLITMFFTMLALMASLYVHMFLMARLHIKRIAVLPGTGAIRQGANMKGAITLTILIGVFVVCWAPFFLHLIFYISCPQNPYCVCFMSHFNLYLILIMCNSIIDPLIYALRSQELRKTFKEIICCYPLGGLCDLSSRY
T12 sequence (P21728 whole entry): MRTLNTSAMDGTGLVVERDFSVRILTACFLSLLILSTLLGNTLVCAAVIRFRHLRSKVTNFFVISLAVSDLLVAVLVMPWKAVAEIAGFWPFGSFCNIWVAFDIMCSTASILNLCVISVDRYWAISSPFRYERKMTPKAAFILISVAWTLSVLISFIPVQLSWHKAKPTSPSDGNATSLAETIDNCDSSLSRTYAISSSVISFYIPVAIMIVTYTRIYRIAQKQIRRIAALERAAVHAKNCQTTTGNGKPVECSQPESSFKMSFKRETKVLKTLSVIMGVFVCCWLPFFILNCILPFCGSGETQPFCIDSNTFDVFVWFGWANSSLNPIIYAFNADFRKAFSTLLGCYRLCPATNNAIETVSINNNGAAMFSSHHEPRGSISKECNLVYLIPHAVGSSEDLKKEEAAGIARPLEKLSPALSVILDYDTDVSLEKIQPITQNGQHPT
T9 sequence (P11229 whole entry): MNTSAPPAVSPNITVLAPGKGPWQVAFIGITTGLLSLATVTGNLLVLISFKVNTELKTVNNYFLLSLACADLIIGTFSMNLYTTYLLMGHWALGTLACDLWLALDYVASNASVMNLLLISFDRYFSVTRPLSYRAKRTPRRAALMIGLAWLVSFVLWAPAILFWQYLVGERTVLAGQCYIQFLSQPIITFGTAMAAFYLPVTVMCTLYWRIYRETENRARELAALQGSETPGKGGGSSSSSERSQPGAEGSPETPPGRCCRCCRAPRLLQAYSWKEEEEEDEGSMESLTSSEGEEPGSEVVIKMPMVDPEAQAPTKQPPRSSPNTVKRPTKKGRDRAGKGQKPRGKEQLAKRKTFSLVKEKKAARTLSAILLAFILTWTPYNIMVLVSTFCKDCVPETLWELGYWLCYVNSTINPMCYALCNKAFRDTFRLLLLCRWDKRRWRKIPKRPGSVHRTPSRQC
T7 sequence (P07550 whole entry): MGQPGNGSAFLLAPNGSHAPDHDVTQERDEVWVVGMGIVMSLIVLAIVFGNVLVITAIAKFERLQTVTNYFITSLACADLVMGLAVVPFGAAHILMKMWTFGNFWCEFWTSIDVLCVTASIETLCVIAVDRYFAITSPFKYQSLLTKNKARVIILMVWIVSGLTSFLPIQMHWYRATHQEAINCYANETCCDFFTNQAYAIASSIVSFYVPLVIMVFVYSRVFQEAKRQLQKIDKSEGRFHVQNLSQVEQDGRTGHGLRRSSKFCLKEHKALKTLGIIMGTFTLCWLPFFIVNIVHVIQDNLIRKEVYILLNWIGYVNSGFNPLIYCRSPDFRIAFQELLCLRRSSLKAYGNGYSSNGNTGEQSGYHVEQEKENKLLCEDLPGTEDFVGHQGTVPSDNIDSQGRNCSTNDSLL
T6 sequence (P20309 whole entry): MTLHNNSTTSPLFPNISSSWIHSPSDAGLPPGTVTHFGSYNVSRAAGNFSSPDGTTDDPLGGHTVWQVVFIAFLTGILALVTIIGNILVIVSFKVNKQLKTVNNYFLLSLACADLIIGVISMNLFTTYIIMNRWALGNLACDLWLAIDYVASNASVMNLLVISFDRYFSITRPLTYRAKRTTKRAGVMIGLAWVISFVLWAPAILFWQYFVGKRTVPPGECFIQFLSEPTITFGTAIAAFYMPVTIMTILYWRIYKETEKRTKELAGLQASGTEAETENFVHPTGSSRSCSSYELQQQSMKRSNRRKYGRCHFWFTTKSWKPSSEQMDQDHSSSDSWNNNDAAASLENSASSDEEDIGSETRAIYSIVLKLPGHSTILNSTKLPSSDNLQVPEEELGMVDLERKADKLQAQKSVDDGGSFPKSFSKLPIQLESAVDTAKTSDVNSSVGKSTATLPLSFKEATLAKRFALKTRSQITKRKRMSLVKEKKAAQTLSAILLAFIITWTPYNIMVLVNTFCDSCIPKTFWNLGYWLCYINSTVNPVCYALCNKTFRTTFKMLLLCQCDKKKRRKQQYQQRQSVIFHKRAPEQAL
UniProt P33261, sequence (P33261 whole entry): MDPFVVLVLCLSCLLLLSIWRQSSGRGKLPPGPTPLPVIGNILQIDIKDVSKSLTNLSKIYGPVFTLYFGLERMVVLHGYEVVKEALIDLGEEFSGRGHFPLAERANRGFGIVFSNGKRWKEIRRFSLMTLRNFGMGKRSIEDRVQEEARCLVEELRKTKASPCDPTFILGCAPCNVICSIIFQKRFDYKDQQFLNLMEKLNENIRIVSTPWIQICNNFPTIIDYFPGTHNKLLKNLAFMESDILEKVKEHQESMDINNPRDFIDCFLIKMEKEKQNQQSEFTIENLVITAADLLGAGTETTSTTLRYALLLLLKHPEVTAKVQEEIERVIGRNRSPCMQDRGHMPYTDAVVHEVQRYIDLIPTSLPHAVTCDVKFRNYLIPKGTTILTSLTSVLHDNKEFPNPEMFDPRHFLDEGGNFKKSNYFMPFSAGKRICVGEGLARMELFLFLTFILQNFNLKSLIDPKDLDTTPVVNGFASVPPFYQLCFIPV
T4 sequence (P21554 whole entry): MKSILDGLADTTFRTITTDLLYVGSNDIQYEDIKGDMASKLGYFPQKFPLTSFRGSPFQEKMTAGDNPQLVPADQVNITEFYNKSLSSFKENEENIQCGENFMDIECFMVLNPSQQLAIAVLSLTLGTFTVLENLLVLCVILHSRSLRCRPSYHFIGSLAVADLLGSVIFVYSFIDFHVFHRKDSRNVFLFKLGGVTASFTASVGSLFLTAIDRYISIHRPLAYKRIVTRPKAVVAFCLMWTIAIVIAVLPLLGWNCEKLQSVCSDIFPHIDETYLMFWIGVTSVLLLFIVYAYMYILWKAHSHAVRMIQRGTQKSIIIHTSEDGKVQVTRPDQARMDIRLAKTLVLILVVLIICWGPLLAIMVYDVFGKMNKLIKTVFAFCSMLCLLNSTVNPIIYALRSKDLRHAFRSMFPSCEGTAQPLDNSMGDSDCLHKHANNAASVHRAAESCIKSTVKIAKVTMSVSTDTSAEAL
UniProt P10635, sequence (P10635 whole entry): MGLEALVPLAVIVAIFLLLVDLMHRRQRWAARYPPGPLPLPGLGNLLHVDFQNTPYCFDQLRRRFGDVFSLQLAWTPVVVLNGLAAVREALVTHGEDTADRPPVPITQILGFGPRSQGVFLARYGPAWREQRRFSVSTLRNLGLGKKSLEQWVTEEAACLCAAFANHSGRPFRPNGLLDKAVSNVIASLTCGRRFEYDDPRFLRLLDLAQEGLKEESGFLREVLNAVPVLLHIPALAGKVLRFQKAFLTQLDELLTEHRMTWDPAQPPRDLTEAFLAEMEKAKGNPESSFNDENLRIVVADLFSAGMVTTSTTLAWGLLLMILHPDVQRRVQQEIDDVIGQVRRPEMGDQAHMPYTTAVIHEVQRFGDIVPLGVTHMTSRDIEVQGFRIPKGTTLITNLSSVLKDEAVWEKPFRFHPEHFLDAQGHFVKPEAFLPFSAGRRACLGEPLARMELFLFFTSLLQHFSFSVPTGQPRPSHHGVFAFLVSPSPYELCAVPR

## FC(F)(F)c1ccc(-c2noc(CN3CCCC(CN4CCOCC4)C3)n2)cc1 (centres unmarked) [compound 9, 4-{[1-({3-[4-(Trifluoromethyl)phenyl]-1,2,4-oxadiazol-5-yl}methyl)piperidin-3-yl]methyl}morpholine]
[1]; Rat
  Clint (mL/min/g liver): 2.1 mL/min/g liver
[1]; Rat, 1 μM
  % Metabolism after 30 min: 42%
[1]; rat, rat liver microsomes, read-out: Half-life time
  half-life at 1 µM: > 30 min
[2]
  glucose handling after glucose load: improvement of glucose release was also observed
MC4 (h)
  inhibition at 10 µM: -8%
CCK1 (CCKA) (h)
  inhibition at 10 µM: 2%
ETA (h)
  inhibition at 10 µM: -13%
CB1 (h)
  inhibition at 10 µM: 15%
AT1 (h)
  inhibition at 10 µM: -6%
M3 (h)
  inhibition at 10 µM: 45%
β2 (h)
  inhibition at 10 µM: -11%
CXCR2 (IL-8B) (h)
  inhibition at 10 µM: -6%
M1 (h)
  inhibition at 10 µM: 30%
M2 (h)
  inhibition at 10 µM: -7%
D2S (h)
  inhibition at 10 µM: 8%
D1 (h)
  inhibition at 10 µM: 4%
CYP1A2
  IC50: 26 µM
CYP2D6
  IC50: 19 µM
CYP3A
  IC50: > 100 µM
[3]; Dog
  Clint (mL/min/g liver): 2.3 mL/min/g liver
[3]; Dog, 1 μM
  % Metabolism after 30 min: 46%
[3]; dog, dog liver microsomes, read-out: Half-life time
  half-life at 1 µM: > 30 min
CYP2C19
  IC50: 48 µM
[4]; Human
  Clint (mL/min/g liver): 1.8 mL/min/g liver
[4]; Human, 1 μM
  % Metabolism after 30 min: 39%
[4]; human, human liver microsomes, read-out: Half-life time
  half-life at 1 µM: > 30 min
[5]
  brain penetration (in words): moderate brain penetration
[5]; pig, PAMPA, 50 µM, PBS pH 7.4, read-out: Pe
  Papp at 5 h, 50 µM: 2 ×10⁻⁶ cm/s
[5]; pig, PAMPA, 100 µM, PBS pH 7.4, read-out: Pe
  Papp at 5 h, 100 µM: 1.8 ×10⁻⁶ cm/s
INS-1 β-cells; 0.1 nM 9, GLP-1, high glucose
  potentiation of insulin secretion: 1.8 fold
INS-1 β-cells; Rattus norvegicus, INS1, read-out: EC50 value of 9, potentiation of the incretin effect of GLP-1
  EC50: 8 pM
INS-1 β-cells; compound 1 μM, GLP-1 10 nM, high glucose 15 mM
  potentiation of GLP-1-induced insulin secretion (in words): boosting glucose-dependent GLP-1-induced secretion of insulin from β-cells
